This is one part of the list.
B1: PhoQ; a variant is named by its letters at X, in order, P23837 (parent)
chain: MKKLLRLFFPLSLRVRFLLATAAVVLVLSLAYGMVALIGYSVSFDKTTFRLLRGESNLFYTLAKWENNKLHVELPENIDKQSPTMTLIYDENGQLLWAQRDVPWLMKMIQPDWLKSNGFHEIEADVNDTSLLLSGDHSIQQQLQEVREDDDDAEMTHSVAVNVYPATSRMPKLTIVVVDTIPVELKSSYMVWSWFIYVLSANLLLVIPLLWVAAWWSLRPIEALAKEVRELEEHNRELLNPATTRELTSLVRNLNRLLKSERERYDKYRTTLTDLTHSLKTPLXXLQXXLRSLRSEKMSVSDAEPVMLEQISRISQQIGYYLHRASMRGGTLLSRELHPVAPLLDNLTSALNKVYQRKGVNISLDISPEISFVGEQNDFVEVMGNVLDNACKYCLEFVEISARQTDEHLYIVVEDDGPGIPLSKREVIFDRGQRVDTLRPGQGVGLAVAREITEQYEGKIVAGESMLGGARMEVIFGRQHSAPKDE

Variants of: B1
Assay: enrichment ratio after two sorts for PhoP signalling (ratio (wild type AVST 3.29)); higher = more functional
Settings: with PhoP (E. coli)

| Variant | enrichment ratio |
| --- | --- |
| RAIC | ≤ 0.25 |
| QGLN | ≤ 0.25 |
| NTRD | ≤ 0.25 |
| DDTI | ≤ 0.25 |
| WHHG | ≤ 0.25 |
| LRLT | ≤ 0.25 |
| SRWP | ≤ 0.25 |
| NMWE | ≤ 0.25 |
| RVCT | ≤ 0.25 |
| NPSH | ≤ 0.25 |
| NMKL | ≤ 0.25 |
| MKHH | ≤ 0.25 |
| TLIN | ≤ 0.25 |
| FKEH | ≤ 0.25 |
| SRII | 0.811 |
| AGTM | 16.2 |
| TLLQ | 0.937 |
| EIRC | ≤ 0.25 |
| HIPG | ≤ 0.25 |
| IYHY | ≤ 0.25 |
| IMMN | ≤ 0.25 |
| FSLW | ≤ 0.25 |
| NPNG | ≤ 0.25 |
| QGCN | ≤ 0.25 |
| DEAY | ≤ 0.25 |
| KVRV | ≤ 0.25 |

| Variant | enrichment ratio |
| --- | --- |
| DMVF | ≤ 0.25 |
| SWAR | ≤ 0.25 |
| LLIC | ≤ 0.25 |
| GRIP | ≤ 0.25 |
| PLGF | ≤ 0.25 |
| DDMK | ≤ 0.25 |
| WHHD | ≤ 0.25 |
| DGLQ | ≤ 0.25 |
| STPC | ≤ 0.25 |
| TIVT | ≤ 0.25 |
| NFHM | ≤ 0.25 |
| IQNM | ≤ 0.25 |
| TGGT | 0.253 |
| GMNM | ≤ 0.25 |
| RPWL | ≤ 0.25 |
| ENMG | ≤ 0.25 |
| TMAT | 11.2 |
| RLHT | ≤ 0.25 |
| FHVY | ≤ 0.25 |
| QCYM | ≤ 0.25 |
| IGWI | ≤ 0.25 |
| EDGA | ≤ 0.25 |
| WYTV | ≤ 0.25 |
| NIWR | ≤ 0.25 |
| MQVE | ≤ 0.25 |
| ACTA | 1.02 |

| Variant | enrichment ratio |
| --- | --- |
| NKTP | ≤ 0.25 |
| TAAK | ≤ 0.25 |
| FSDV | ≤ 0.25 |
| NALS | ≤ 0.25 |
| WMTI | ≤ 0.25 |
| APSV | ≤ 0.25 |
| IICV | ≤ 0.25 |
| KHSY | ≤ 0.25 |
| ITMF | 0.899 |
| AIYH | ≤ 0.25 |
| GNSL | 10.3 |
| KRTM | ≤ 0.25 |
| SMDM | ≤ 0.25 |
| RTKP | ≤ 0.25 |
| IKTQ | ≤ 0.25 |
| SEHM | 23.7 |
| LWFK | ≤ 0.25 |
| AMTV | 9.95 |
| IVAH | ≤ 0.25 |
| DEDL | ≤ 0.25 |
| FQGM | ≤ 0.25 |
| DMDG | ≤ 0.25 |
| GIMQ | 11.4 |
| GMPR | ≤ 0.25 |
| HWFG | ≤ 0.25 |
| AQWT | ≤ 0.25 |

| Variant | enrichment ratio |
| --- | --- |
| INIY | ≤ 0.25 |
| RMQC | ≤ 0.25 |
| DKGG | ≤ 0.25 |
| TYNP | ≤ 0.25 |
| FSQT | 1.24 |
| IFGE | ≤ 0.25 |
| IAQM | ≤ 0.25 |
| KGMK | ≤ 0.25 |
| AEIG | 21.9 |
| GFRS | 0.335 |
| RFRF | ≤ 0.25 |
| THPG | ≤ 0.25 |
| GQHY | ≤ 0.25 |
| GSKG | ≤ 0.25 |
| RVHL | ≤ 0.25 |
| TAVR | ≤ 0.25 |
| MDWG | ≤ 0.25 |
| MSDI | ≤ 0.25 |
| LCWA | ≤ 0.25 |
| IWRP | ≤ 0.25 |
| EESV | ≤ 0.25 |
| GDAI | 9.76 |
| ILPQ | ≤ 0.25 |
| FIIP | ≤ 0.25 |
| WITN | ≤ 0.25 |
| NEAF | ≤ 0.25 |

| Variant | enrichment ratio |
| --- | --- |
| SQQS | ≤ 0.25 |
| PSIW | ≤ 0.25 |
| GQHG | ≤ 0.25 |
| FEFY | ≤ 0.25 |
| RMIQ | ≤ 0.25 |
| DLEW | ≤ 0.25 |
| KRSW | ≤ 0.25 |
| KLFR | ≤ 0.25 |
| SKTY | ≤ 0.25 |
| KKDP | ≤ 0.25 |
| FPCK | ≤ 0.25 |
| CITH | ≤ 0.25 |
| ESYW | ≤ 0.25 |
| PCSN | ≤ 0.25 |
| WSPS | ≤ 0.25 |
| VIPE | ≤ 0.25 |
| DMAF | ≤ 0.25 |
| VFIW | ≤ 0.25 |
| PVCV | ≤ 0.25 |
| VHTN | ≤ 0.25 |
| NQWI | ≤ 0.25 |
| RQIW | ≤ 0.25 |
| FQPH | ≤ 0.25 |
| TTIS | 0.969 |
| VFAI | 0.456 |
| FINT | ≤ 0.25 |

| Variant | enrichment ratio |
| --- | --- |
| YKRE | ≤ 0.25 |
| FCHR | ≤ 0.25 |
| VTEP | ≤ 0.25 |
| ICRT | ≤ 0.25 |
| SNLC | 11.3 |
| KRRQ | ≤ 0.25 |
| FANP | ≤ 0.25 |
| FRPL | ≤ 0.25 |
| WLPS | ≤ 0.25 |
| VMDY | ≤ 0.25 |
| QEPV | ≤ 0.25 |
| YCKS | 0.866 |
| QSEC | ≤ 0.25 |
| VYMI | ≤ 0.25 |
| DGLI | ≤ 0.25 |
| WDQP | ≤ 0.25 |
| RIGP | ≤ 0.25 |
| MYKV | ≤ 0.25 |
| RAKH | ≤ 0.25 |
| VGMM | 8.27 |
| VNVP | ≤ 0.25 |
| CVQS | ≤ 0.25 |
| RPDL | ≤ 0.25 |

— a collection of fitness landscapes (doi:10.1126/science.1257360)
